Measured values published in PMC4102417 (PLoS Neglected Tropical Diseases, 2014).
Where a name gives a salt, the structure may show the parent alone. Read-outs that look alike come from different tables or passages of the source.

Experiments:
[1] = tested on: T. cruzi (Tulahuen strain); assay: microbe, parasite or virus in culture; type: cell-based, Trypanosoma cruzi; details: for EC50: Trypanosoma cruzi, TULAHUEN, Fibroblast, read-out: T. cruzi EC50 (nM)
Method: Compounds were tested against T. cruzi (Tulahuen strain) stably expressing the beta-galactosidase gene as previously described. […] Fibroblasts were plated at a density of 2×10^3 per well in 96 well tissue culture plates. After 24 hours of incubation, 1×10^4 trypomastigotes/well were added to the fibroblasts and incubated for 4 hours before addition of the test compounds from the Spectrum Collection (10 µM final concentration). Cultures were incubated at 37°C for 5 days, then developed with chlorophenol red β-D-galactopyranoside as previously described. The percent inhibition is reported with standard deviation of the mean. […] Z-prime values were calculated for each 96-well plate based on positive (4 wells) and negative controls (4 wells).

[2] = in vitro; type: cell-based, murine; details: mouse, Mammalian cell CC50 (nM)
[3] = tested on: T. cruzi; details: read-out: anti-T. cruzi activity EC50; cited from earlier work

Row | SMILES | EC50 [1] | CC50 [2] | other results
1 | Clc1ccc2c(c1)C(N1CCNCC1)=Nc1ccccc1O2 [AMOXAPINE, 13-chloro-10-(piperazin-1-yl)-2-oxa-9-azatricyclo[9.4.0.0^{3,8}]pentadeca-1(15),3,5,7,9,11,13-heptaene] | 9350 nM |  | 
2 | COc1ccc(CCN2CCC(Nc3nc4ccccc4n3Cc3ccc(F)cc3)CC2)cc1 [ASTEMIZOLE, 1-[(4-fluorophenyl)methyl]-N-{1-[2-(4-methoxyphenyl)ethyl]piperidin-4-yl}-1H-1,3-benzodiazol-2-amine] | 880 nM |  | 
3 | Clc1ccccc1C(c1ccccc1)(c1ccccc1)n1ccnc1 [CLOTRIMAZOLE, 1-[(2-chlorophenyl)diphenylmethyl]-1H-imidazole] | 1 nM |  | 
4 | CN1CCCC1CCOC(C)(c1ccccc1)c1ccc(Cl)cc1 (stereo not shown) [Clemastine, 2-{2-[1-(4-chlorophenyl)-1-phenylethoxy]ethyl}-1-methylpyrrolidine] |  | 24000 nM | 
5 | CN(C)CCCN1c2ccccc2CCc2ccc(Cl)cc21 [Clomipramine, (3-{5-chloro-2-azatricyclo[9.4.0.0^{3,8}]pentadeca-1(15),3,5,7,11,13-hexaen-2-yl}propyl)dimethylamine hydrochloride] |  | 11000 nM | 
6 | CNCCC(Oc1ccc(C(F)(F)F)cc1)c1ccccc1 (stereo not shown) [Fluoxetine, methyl({3-phenyl-3-[4-(trifluoromethyl)phenoxy]propyl})amine hydrochloride] |  | 15800 nM | EC50 [3]: 7 µM
7 | CNC1CCC(c2ccc(Cl)c(Cl)c2)c2ccccc21 (stereo not shown) [Sertraline, 4-(3,4-dichlorophenyl)-N-methyl-1,2,3,4-tetrahydronaphthalen-1-amine hydrochloride] |  | 7600 nM | 
8 | CSc1ccc2c(c1)N(CCC1CCCCN1C)c1ccccc1S2 (stereo not shown) [Thioridazine, 10-[2-(1-methylpiperidin-2-yl)ethyl]-2-(methylsulfanyl)-10H-phenothiazine] |  |  | Selectivity index [1]: 2.9; EC50 ([1]; 120 h): 2600 nM
